Results on 91 sequences are retold here after the supplement of paper PMC5655136.

Values come from read counts of a selection and are noisy.
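Note: shRNA barcodes quantified by deep sequencing of PCR amplicons from cellular DNA, counts expressed as percent of each subpool, ratio averaged over two biological duplicates.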

The subject of the first data set is NB7. As to the kind of experiment: fold depletion of shRNA, plasmid library share / infected cells without Dox share (9 days) (ratio); higher = more depleted after infection (more toxic, leaky expression from a Tet-inducible vector; NB7 is a neuroblastoma line without caspase-8). The conditions noted are these: shRNA pool: CD95L ORF + CD95L 3'UTR + Venus libraries.
Regarding AACCAAGTGGACCTTGAGACC, the “fold depletion of shRNA” value is 1.56.
In the case of CTGCTTTCTGGAGTGAAGTAT, the “fold depletion of shRNA” value worked out at 2.07.
Consider CTTCTAAATGCATATCCTGAG, for which the “fold depletion of shRNA” value was found to be 1.17.
Still for that read-out and setting: the result for GCTACGGCCTGCAGTGCTTCG reads 0.94.
As to CAGCTACCAGGTGTTCTACAC, the “fold depletion of shRNA” value stood at 1.9.
The same measure, in the same setting: to GATCATTTATATGTCAACGTA belongs 0.681; to GGAGGACGGCAACATCCTGGG, 0.919.
Still for that read-out and setting: the result for GTAGATATTGTGAAGTACATA reads 0.672.
Same read-out and setting: to GGGAAGACACCTATGGAATTG belongs 1.28; to ATTACCCATATCCCCAGATCT, 1.92.
As for GACAATCAACTCTAATAGTGC, the “fold depletion of shRNA” value was determined as 3.11.
On the same count and under the same terms, to GCTGCCATGTGAAGAGGGAGA belongs 0.691; to GCCACAAGGTCTACATGAGGA, 1.2; to TGAAATGAAAACATGTAATAA, 0.412.
The same measure, in the same setting: to CAAGGGGGACTGTCTTTCAGA belongs 0.696; to TCAAGTCCGCCATGCCCGAAG, 1.44; to ACTTTGTATATTCCAAAGTAT, 0.387.
As to CTTTTAACTCACCTCTCAAGG, the “fold depletion of shRNA” value is 4.21.
With AGCTGATCTGCACCACCGGCA, the “fold depletion of shRNA” value stood at 1.23.
On the same count and under the same terms, to CTACTGCACTACTGGGCAGAT belongs 2.67; to ACTGGCAGCATCTTCACTTCT, 1.77; to CAAGCTGACCCTGAAGCTGAT, 2.06.
Same read-out and setting: to GCAACTACAAGACCCGCGCCG belongs 0.562; to TTTTGAATGCTTCCTGACAAT, 2.42; to AACCTCTGTGCCCAGAAGGCC, 23.8.
Still for that read-out and setting: the result for GCTCTCTCTGGTCAATTTTGA reads 1.21.
On to GGACGGCGGCGTGCAGCTCGC, for which the “fold depletion of shRNA” value was determined as 0.451.
On the same count and under the same terms, to AAGTATAAGAAGGGTGGCCTT belongs 0.606; to GCAAATAGGCCACCCCAGTCC, 11.7.
On the same count and under the same terms, the result for CCCAGTCCACCCCCTGAAAAA reads 1.42.
On to TATAATAAATATTTATGTAGA, for which the “fold depletion of shRNA” value worked out at 1.05.
Same read-out and setting: to CACAACGTCTATATCACCGCC belongs 1.23; to AGCCAGATGCACACAGCATCA, 1.75; to CCAGACAAATGGAGGAATATG, 2.38.
As for ATATTAGGAAAATATGGGTTG, the “fold depletion of shRNA” value amounted to 0.925.
CCACTGGCAGCATCTTCACTT: the “fold depletion of shRNA” value came out at 1.24.
Still for that read-out and setting: to GTATTTAGGCAGATTGAAAAG belongs 1.59.

The data set is the same for the next values; noted with them: shRNA pool: CD95 ORF + CD95 3'UTR + Venus libraries.
Turning to AAAATGTTCAATAATGTCCCA, the “fold depletion of shRNA” value is 0.834.
Same read-out and setting: to TTGCACCAAATGTGAACATGG belongs 1.28; to CTCTGAGAAGATCATATTTAT, 1.17; to GTGTTTGAAAAGATTCTTAAT, 1.11.
On the same count and under the same terms, the result for GCTACGGCCTGCAGTGCTTCG reads 1.05; that for ACAAATGTCTATCCACAGGCT, 0.952.
Still for that read-out and setting: the result for AAGACCTTTGCACAGTTTATT reads 2.15; that for CTTATACATAGCAATGGTAAA, 0.857.
Take CCCTGCCAAGAAGGGAAGGAG: the “fold depletion of shRNA” value was 1.55.
On the same count and under the same terms, the result for TGTATGTGAACACTGTGACCC reads 7.13; that for GAACCCATGTTTGCAATCAAA, 2.48; that for AGAAGATGTAGATTGTGTGAT, 1.09.
Regarding GGAGGACGGCAACATCCTGGG, the “fold depletion of shRNA” value turned out to be 0.699.
The same measure, in the same setting: to GCTAACCCCACTCTATGAATC belongs 2.7; to CATTTTTGCCTTGGTGCTCAT, 0.961.
Still for that read-out and setting: to AATACTGCTTGGTTTTTTACT belongs 1.74.
On the same count and under the same terms, the result for CACTCTATGAATCAATAGAAG reads 1.22; that for TCAAAAAAGCCAATCTTTGTA, 0.962.
On to TTCCACTAATTGTTTGGGTGA, for which the “fold depletion of shRNA” value was determined as 1.03.
Still for that read-out and setting: to GTACGTAATTAAATAATGTTT belongs 0.866; to AAATGTAAACTGTGAAGATAG, 1.5.
Regarding GATAGTTATAAACTGAAGCAG, the “fold depletion of shRNA” value amounted to 0.953.
Still for that read-out and setting: the result for TATCTCATGATTCTGCCTCCA reads 2.53.
Still for that read-out and setting: to TTAAAGATCTCAAAAAAGCCA belongs 3.93; to GCACCCCCAAACATGGAAATA, 3.7.
As for ATTTTTGCCTTGGTGCTCATC, the “fold depletion of shRNA” value was 33.8.
As to TCAAGTCCGCCATGCCCGAAG, the “fold depletion of shRNA” value came to 0.902.
Still for that read-out and setting: to AATTCACATAGAAAACATTAA belongs 0.945.
The same measure, in the same setting: to TGTCAATGAAGCCAAAATAGA belongs 0.705; to GATGAAGGACATGGCTTAGAA, 1.16; to TGGACCCTCCTACCTCTGGTT, 0.469.
The same measure, in the same setting: the result for CTGGCATCTAACATATGATTC reads 1.39; that for GCACAGAAAGGAAAACCAAGG, 0.374.
AGCTGATCTGCACCACCGGCA: the “fold depletion of shRNA” value is 1.44.
The same measure, in the same setting: to ACCTTTGCACAGTTTATTGGT belongs 1.6; to TTTCTTCCAAATGCAGAAGAT, 0.855.
CCAAGGTTCTCATGAATCTCC: the “fold depletion of shRNA” value came out at 2.14.
On to ATAGCAATGGTAAAATCATCA, for which the “fold depletion of shRNA” value amounted to 1.48.
GCGCTGAAGAGCCAACATATT: the “fold depletion of shRNA” value was 1.26.
Still for that read-out and setting: to TAATGTCCCATGTAAAACCTG belongs 6.35.
As for AGGCTCTACCTCAAAGACCTT, the “fold depletion of shRNA” value was 3.03.
Same read-out and setting: the result for CAAGCTGACCCTGAAGCTGAT reads 1.41.
Same read-out and setting: to CAATAGAAGAAGCTATGACCT belongs 2.23; to GCAACTACAAGACCCGCGCCG, 0.88; to ATAGAAGAAGCTATGACCTTT, 1.18.
The same measure, in the same setting: the result for GGACGGCGGCGTGCAGCTCGC reads 0.601; that for TTCTTCCAAATGCAGAAGATG, 0.895; that for TAAATATATCACCACTATTGC, 0.983.
On to CCCGGACCCAGAATACCAAGT, for which the “fold depletion of shRNA” value was determined as 0.709.
Still for that read-out and setting: the result for TGGCAATAAATTTATCTGATG reads 1.26; that for ACTCTATGAATCAATAGAAGA, 1.37.
The same measure, in the same setting: the result for CCACCTAAAGAACTTCCATTT reads 1.9; that for GGATCCAGATCTAACTTGGGG, 0.226; that for TGAACATGGAATCATCAAGGA, 1.51.
On the same count and under the same terms, to TTCTCCTTACTACTATCCTAC belongs 0.88; to ATGTAAAACCTGCTACAAATG, 2.95.
Turning to CACAACGTCTATATCACCGCC, the “fold depletion of shRNA” value amounted to 0.969.
The same measure, in the same setting: the result for AAAACCTGCTACAAATGGCAG reads 1.01.
Same read-out and setting: the result for TAGTGTTTGAAAAGATTCTTA reads 0.841; that for ATCAACTCCAAGGGATTGGAA, 0.97; that for AGAATACCAAGTGCAGATGTA, 2.25.
On the same count and under the same terms, the result for CATATTTCTAAACTTTGTTTA reads 0.715.
